# Assay results taken from PubChem BioAssay (NCATS).
# Where “and” joins values, the source holds several entries; their conditions need not be identical. Equal entries are not always repeated. The inconclusive results got no clear call from the source; some entries with a clear call stand among them for comparison. For some assays here: Potencies of inconclusive entries are doubtful fits and often do not repeat. Calls of active or inactive are those of the source. The call rests on the fitted dose curve; in most records, active means well fitted curve in the direction sought with a large enough effect; inconclusive means small, poorly fitted or top-dose-only effect, or another doubt; inactive means no such curve, though single readings can be large; an effect the other way counts as inactive or inconclusive.
# How the values were obtained:
# CRL-7250 = normal cell line; experiment: Cytotoxic Profiling of Annotated Libraries Using Quantitative High-Throughput Screening (AID 1296008); details: Five cell lines viability, CellTiter-Glo ATP luminescence, 48-72 h; max response: stronger effect = lower value; further: nearly all actives have a fitted effect of over 60% in size; on max response: on the % scale 0 is the no-effect control and ±100 the full control effect
# Outline: (§1)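 Cytotoxicity was measured as CellTiter-Glo ATP luminescence, read after 10 min at room temperature. Compound treatment of the cells lasted 48 or 72 hr at 37 degrees Celsius in a qHTS format.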
# HEK293 = experiment: as above; details: Five cell lines viability, CellTiter-Glo ATP luminescence, 48-72 h; max response: stronger effect = lower value
# Outline: as §1
# CASKI = experiment: Primary qHTS to identify gynecologic anti-cancer compounds using libraries of approved drugs and bioactive compounds (AID 1345084); details: Gynecologic cancer cell panel viability, ATPlite luminescence, 48 h; activity change, negative = cytotoxicity: at 57.5 µM (top of the series); further: nearly all actives have a fitted effect of over 55% in size; on activity change, negative = cytotoxicity: on the % scale 0 is the no-effect control and ±100 the full control effect
# Outline: (§2)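 Cells, 1,000 per well, plated 16 h, then exposed 48 h at 37 C to compounds. Viability by ATPlite luminescence after 15 min at room temperature.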
# HeLa = experiment: as above; details: Gynecologic cancer cell panel viability, ATPlite luminescence, 48 h; series mostly up to 57.5 µM
# Outline: as §2
# PA-1 = experiment: as above; details: Gynecologic cancer cell panel viability, ATPlite luminescence, 48 h; series mostly up to 57.5 µM
# Outline: as §2
# SKOV3 = experiment: as above; details: Gynecologic cancer cell panel viability, ATPlite luminescence, 48 h; series mostly up to 57.5 µM
# Outline: as §2
# Tov-21-G = experiment: as above; details: Gynecologic cancer cell panel viability, ATPlite luminescence, 48 h; activity change, negative = cytotoxicity: at 57.5 µM (top of the series)
# Outline: as §2
# [1] = P-glycoprotein substrates identified in KB-8-5-11 adenocarcinoma cell line, qHTS therapeutic library screen (AID 1346987); further: nearly all actives have a fitted effect of over 65% in size
# Outline: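 P-gp-mediated resistance screen: KB-8-5-11 cells treated 72 h with compounds in dose-response. CellTiter-Glo viability.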
# [2] = Primary qHTS for small molecule stabilizers of the endoplasmic reticulum resident proteome: Secreted ER Calcium Modulated Protein (SERCaMP) assay (AID 1508630); details: SH-SY5Y GLuc-SERCaMP (Gaussia luciferase released on ER calcium loss) secretion, thapsigargin, luminescence; activity change, negative = inhibition: at 38.4 µM (top of the series)
# Outline: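 GLuc-SERCaMP-expressing SH-SY5Y cells, pretreated 16 h with compound, are challenged with thapsigargin to empty ER calcium stores; after 4 h, coelenterazine is added directly to the medium and luminescence is imaged.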
# [3] = Primary fluorescence-based thiol-reactive (MSTI) qHTS assay for identification of artifact compounds. (AID 1845221);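 further: thiol-reactive compounds lower the probe fluorescence signal; nearly all actives have a fitted effect of over 65% in size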
# Outline: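 MSTI probe at 4 uM final in 2% DMSO/PBS pH 7.4; compounds, 1 h at room temperature in dark. Fluorescence Ex/Em 525/598 nm, normalised to Acetyl-MSTI and MSTI, fitted to 4-parameter Hill.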
# CAOV3 = experiment: Primary qHTS to identify gynecologic anti-cancer compounds using libraries of approved drugs and bioactive compounds (AID 1345084); details: Gynecologic cancer cell panel viability, ATPlite luminescence, 48 h; series mostly up to 57.5 µM; further: nearly all actives have a fitted effect of over 55% in size; on activity change, negative = cytotoxicity: on the % scale 0 is the no-effect control and ±100 the full control effect
# Outline: as §2
# OV90 = experiment: as above; details: Gynecologic cancer cell panel viability, ATPlite luminescence, 48 h; series mostly up to 57.5 µM
# Outline: as §2
# [4] = Primary qHTS for inhibitors of nuclear receptor binding SET domain protein 2 (NSD2) in an RCH-ACV wild type WT cells (2C) (AID 1645877); details: activity change, negative = cell killing: at 44.9 µM (top of the series); further: nearly all actives have a fitted effect of over 70% in size
# [5] = Primary qHTS for inhibitors of nuclear receptor binding SET domain protein 2 (NSD2) in an isogenic RCH-ACV NSD2 p.E1099K mutant (9B) (AID 1645876); further: nearly all actives have a fitted effect of over 70% in size
# [6] = tested on: Zika virus NS2B-NS3 protease (unlinked complex); experiment: Primary screen GU Rhodamine qHTS for Zika virus inhibitors: Unlinked NS2B-NS3 protease assay (AID 1347159); further: nearly all actives have a fitted effect of over 60% in size
# Outline: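 Noncovalent NS2B hydrophilic domain–NS3 protease domain complex (25 nM) preincubated 15 min at room temperature with compounds (up to 114 microM) in 10 mM Tris-HCl pH 8.0, 0.01% Tween 20; 1.5 microM Rhodamine110 substrate added, fluorescence change over 15 min fitted to Hill equation.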
# Es-2 = experiment: Primary qHTS to identify gynecologic anti-cancer compounds using libraries of approved drugs and bioactive compounds (AID 1345084); details: Gynecologic cancer cell panel viability, ATPlite luminescence, 48 h; series mostly up to 57.5 µM; further: nearly all actives have a fitted effect of over 55% in size; on activity change, negative = cytotoxicity: on the % scale 0 is the no-effect control and ±100 the full control effect
# Outline: as §2
# Hek293T = experiment: as above; details: Gynecologic cancer cell panel viability, ATPlite luminescence, 48 h, control line for the selectivity index; series mostly up to 57.5 µM
# Outline: as §2
# Potency means the concentration at half of the fitted maximal effect; tags describe the fitted curve by direction and shape.
structure (smiles),measurement,setting,value
COc1ccc(C2=NC(c3ccc(Cl)cc3)C(c3ccc(Cl)cc3)N2C(=O)N2CCNC(=O)C2)c(OC(C)C)c1 (stereo unspecified),Potency,CRL-7250,"inconclusive: 20.6 µM [inhibitor, single point]"
same,Potency,HEK293,"inconclusive: 29.1 µM [inhibitor, single point]"
same,Potency,CASKI,inactive
same,Potency,HeLa,inactive
same,Potency,PA-1,"inconclusive: 22.4 µM [cytotoxic, single point]"
same,Potency,SKOV3,"inconclusive: 6.31 µM [rising, single point]"
same,Potency,Tov-21-G,"inconclusive: 14.1 µM [cytotoxic, partial curve, poor fit]"
CCN1C(=O)c2ccccc2C1Nc1ccc(OCCN2CCCCC2)cc1 (stereo unspecified),Potency,[1],"inconclusive: 13 µM [inhibitor, partial curve]"
same,Potency,[2],"inconclusive: 28.2 µM [inhibitor, single point]"
same,Potency,[3],inactive
same,max response,CRL-7250,inactive: -2.5%
same,Potency,HEK293,"inconclusive: 29.1 µM [inhibitor, single point]"
same,Potency,CAOV3,inactive
same,Potency,OV90,"inconclusive: 39.8 µM [cytotoxic, single point]"
CC(=O)O[C@@H]1C2=C(O)C(=O)[C@](C)(OC(C)=O)C(=O)C2=CO[C@@]12O[C@@H](C)CC[C@H]2OC(C)=O,Potency,[4],"inconclusive: 8.93 µM [inhibitor, single point]"
same,Potency,CRL-7250,"inconclusive: 15.9 µM [inhibitor, single point]"
same,Potency,HEK293,"inconclusive: 14.2 µM [inhibitor, partial curve, poor fit]"
same,Potency,CAOV3,"inconclusive: 3.98 µM [rising, single point]"
same,Potency,SKOV3,inactive
COC(=O)C1=CO[C@@H](O[C@@H]2O[C@H](CO)[C@@H](O)[C@H](O)[C@H]2O)/C(=C\CO)[C@@H]1CC(=O)OCCc1ccc(O)cc1,Potency,[3],active: 6.53 µM
same,max response,CRL-7250,inactive: 0.106%
same,max response,HEK293,inactive: 2.34%
same,Potency,CAOV3,inactive
same,Potency,SKOV3,inactive
CC(C)[C@@H](C)/C=C/[C@@H](C)[C@H]1CC[C@H]2C3=CC=C4C[C@@H](O)CC[C@]4(C)C3=CC[C@]12C,Potency,[1],"inconclusive: 29.1 µM [inhibitor, single point]"
same,Potency,[5],"inconclusive: 18.3 µM [inhibitor, single point]"
same,Potency,[4],"inconclusive: 18.3 µM [inhibitor, single point]"
same,Potency,CRL-7250,"inconclusive: 20.6 µM [inhibitor, single point]"
same,Potency,HEK293,"inconclusive: 29.1 µM [inhibitor, single point]"
same,Potency,CASKI,inactive
same,Potency,SKOV3,"inconclusive: 25.1 µM [cytotoxic, single point]"
CC(=O)C1(C)CCC2C3C=C(C)C4=CC(=O)CCC4(C)C3CCC21C (stereo unspecified),Potency,[1],"inconclusive: 14.6 µM [inhibitor, partial curve]"
same,Potency,[6],"inconclusive: 39.8 µM [inhibitor, single point]"
same,Potency,[5],"inconclusive: 20.5 µM [inhibitor, partial curve]"
same,Potency,[4],"inconclusive: 23 µM [inhibitor, partial curve]"
same,Potency,CRL-7250,"inconclusive: 23.1 µM [inhibitor, single point]"
same,Potency,HEK293,active: 10.3 µM
same,Potency,Es-2,inactive
same,Potency,HeLa,active: 14.1 µM
same,Potency,Hek293T,"inconclusive: 39.8 µM [cytotoxic, partial curve, poor fit]"
same,Potency,PA-1,"inconclusive: 15.8 µM [cytotoxic, partial curve]"
NCC(=O)O,Potency,[1],inactive
same,Potency,[2],"inconclusive: 31.6 µM [inhibitor, single point] and inconclusive: 3.16 µM [inhibitor, partial curve, poor fit]"
same,Potency,[5],"inconclusive: 14.6 µM [inhibitor, single point]"
same,Potency,[4],"inconclusive: 11.6 µM [inhibitor, single point]"
same,Potency,CRL-7250,"inconclusive: 14.6 µM [inhibitor, single point]"
same,Potency,HEK293,"inconclusive: 16.4 µM [inhibitor, single point]"
same,Potency,CASKI,inactive
same,Potency,HeLa,inactive
same,Potency,Tov-21-G,"inconclusive: 20 µM [cytotoxic, single point]"
CC(=O)Nc1cccc(-c2csc(Nc3cc(C)ccn3)n2)c1,Potency,[5],"inconclusive: 4.09 µM [inhibitor, full curve]"
same,Potency,[4],"inconclusive: 8.17 µM [inhibitor, partial curve]"
same,Potency,[3],"inconclusive: 37.7 µM [inhibitor, single point]"
same,Potency,CRL-7250,"inconclusive: 32.6 µM [inhibitor, single point]"
same,Potency,HEK293,"inconclusive: 18.4 µM [inhibitor, single point]"
same,Potency,Es-2,"inconclusive: 39.8 µM [cytotoxic, single point]"
same,Potency,Hek293T,"inconclusive: 22.4 µM [cytotoxic, partial curve, poor fit]"
same,Potency,PA-1,"inconclusive: 39.8 µM [cytotoxic, single point]"
same,Potency,SKOV3,"inconclusive: 39.8 µM [cytotoxic, single point]"
COc1ccc(-n2c(SCCCN3C(=O)c4cccc5cccc(c45)C3=O)nnc2-c2ccncc2)cc1,Potency,[1],"inconclusive: 9.2 µM [inhibitor, partial curve, poor fit]"
same,Potency,[6],"inconclusive: 79.4 µM [inhibitor, partial curve]"
same,Potency,[3],inactive
same,Potency,CRL-7250,"inconclusive: 6.51 µM [inhibitor, single point]"
same,Potency,HEK293,"inconclusive: 29.1 µM [inhibitor, single point]"
same,Potency,CAOV3,inactive
same,Potency,SKOV3,inactive
CO/N=C(/C(=O)N[C@@H]1C(=O)N2C(C(=O)O)=C(CSC(=O)c3ccco3)CS[C@H]12)c1csc(N)n1,Potency,[6],"inconclusive: 56.2 µM [inhibitor, partial curve, poor fit] and active: 35.5 µM"
same,Potency,[3],"inconclusive: 5.97 µM [inhibitor, partial curve]"
same,max response,CRL-7250,inactive: -7.13% and inactive: 1.26%
same,max response,HEK293,inactive: 3.45% and inactive: -9.59%
same,Potency,CAOV3,"inconclusive: 5.62 µM [rising, full curve]"
